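Each compound was tested at five concentrations against cells in 96-well plates for 48 hours. GI50 is the concentration that inhibits growth by half. TGI: total growth inhibition.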

The test system of this experiment is NCI-H322M lung. Description: NCI anticancer screen, dose series, 48 h.
Turning to `ClC(Cn1ncc2c(Nc3cccc(Br)c3)nc(SCCN3CCOCC3)nc21)c1ccc(Br)cc1` (stereo unspecified), the GI50 was 41.4 µM and the TGI is over 100 µM.
As to `COc1ccc2[nH]c(=O)cc(-n3ncc(C(=O)/C=C/c4cc(OC)c(OC)c(OC)c4)c3C)c2c1`, the GI50 is 9.03 µM and the TGI is 21.2 µM.
On the same counts, the results for `COc1cc(/C=C/C(=O)c2cc(OC)c(OC)c(OC)c2)ccc1Oc1nc(Nc2ccc(F)cc2)nc(N(C)C)n1` are 2.99 µM and 20.9 µM.

(Values after PubChem BioAssay (NCI).)
